According to US20160326228A1 (ACCELERON PHARMA, published 2016):

Legend:
Assay in all cases: Biacore; steady-state affinity fit
[1] = target: T1, Growth and Differentiation Factor-11 (GDF11) (UniProt O95390 299-407)
T1 construct: also called BMP11
T1 sequence (looked up): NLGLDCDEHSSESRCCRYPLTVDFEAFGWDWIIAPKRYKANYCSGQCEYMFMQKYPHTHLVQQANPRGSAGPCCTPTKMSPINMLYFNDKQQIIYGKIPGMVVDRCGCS
Experimental: (§1) The affinity of GDF Traps and other ActRIIB-hFc proteins for several ligands was evaluated in vitro with a BiacoreTM instrument. Kd values were obtained by steady-state affinity fit due to the very rapid association and dissociation of the complex, which prevented accurate determination of kₒₙ and koff.

[2] = target: T2, Activin B (UniProt P09529 293-407)
T2 sequence (looked up): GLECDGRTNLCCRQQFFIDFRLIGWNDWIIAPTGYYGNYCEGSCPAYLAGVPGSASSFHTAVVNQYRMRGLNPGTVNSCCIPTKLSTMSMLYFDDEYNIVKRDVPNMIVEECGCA
Experimental: as §1

[3] = target: T3, Activin A (UniProt P08476 311-426)
T3 construct: also called ActA
T3 sequence (looked up): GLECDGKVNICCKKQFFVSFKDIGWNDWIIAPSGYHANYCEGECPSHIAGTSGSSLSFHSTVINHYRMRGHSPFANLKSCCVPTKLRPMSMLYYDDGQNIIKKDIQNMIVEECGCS
Experimental: as §1

Kd [1]: 0.074 nM
Kd [2]: 0.621 nM
Kd [3]: 22.9 nM
B1: ActRIIB(L79D 25-131)-hFc (Fc fusion)
chain: ETRECIYYNANWELERTNQSGLERCEGEQDKRLHCYASWRNSSGTIELVKKGCWDDDFNCYDRQECVATEENPQVYFCCCEGNFCNERFTHLPEAGGPEVTYEPPPTG[human IgG1 Fc and a few adjoining residues left out here]
notes: also called GDF Trap with truncated ActRIIB extracellular domain
